Source: the supplement of paper PMC4604168 (melanoma cell lines)
Some of the results follow. Many values rest on one well or one pass, so single values are uncertain.

Test system: WM115
Experiment: cell count relative to DMSO control; melanoma cells; higher = more viable cells
Conditions: library dose: low library concentration; 72 h
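Also: cell number obtained by counting DAPI-stained nuclei in high-throughput microscope images with image analysis software, screen run in 1,536-well plates.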

SMILES	cell count [%]
C[C@]12O[C@H](C[C@]1(O)CO)n1c3ccccc3c3c4c(c5c6ccccc6n2c5c31)CNC4=O [Lestaurtinib] + O=C(Oc1ccc([N+](=O)[O-])cc1)N1CCC(C(O)(c2ccc3c(c2)OCO3)c2ccc3c(c2)OCO3)CC1 [JZL184] (first compound 0.004 µM, partner dose 1 µM)	89.4
C[As](C)SC[C@H](NC(=O)CC[C@H](N)C(=O)O)C(=O)NCC(=O)O [Darinaparsin] + Cc1cc([N+](=O)[O-])ccc1NS(=O)(=O)c1cc(Cl)ccc1Cl [FH535] (first compound 0.4 µM, partner dose 1 µM)	98
C[C@]12O[C@H](C[C@]1(O)CO)n1c3ccccc3c3c4c(c5c6ccccc6n2c5c31)CNC4=O [Lestaurtinib] + CN(C)S(=O)(=O)c1ccc2c(c1)/C(=C/c1cc3c([nH]1)CCCC3)C(=O)N2 [SU6656] (first compound 0.004 µM, partner dose 0.4 µM)	67.9
Cn1cc(C2=C(c3cn(C4CCN(Cc5ccccn5)CC4)c4ccccc34)C(=O)NC2=O)c2ccccc21 [Enzastaurin] + CNC(=O)c1cc(Oc2ccc(NC(=O)Nc3ccc(Cl)c(C(F)(F)F)c3)cc2)ccn1 [sorafenib] (first compound 0.8 µM, partner dose 0.4 µM)	98.5
C[C@]12O[C@H](C[C@]1(O)CO)n1c3ccccc3c3c4c(c5c6ccccc6n2c5c31)CNC4=O [Lestaurtinib] + CCCCCCCCCCCC1=C(O)C(=O)C=C(O)C1=O [Embelin] (first compound 0.004 µM, partner dose 1.2 µM)	103
C[C@]12O[C@H](C[C@]1(O)CO)n1c3ccccc3c3c4c(c5c6ccccc6n2c5c31)CNC4=O [Lestaurtinib] + CCc1ccc(CCOc2ccc(CC3SC(=O)NC3=O)cc2)nc1 [pioglitazone] (first compound 0.004 µM, partner dose 2 µM)	90.6
Cn1cc(C2=C(c3cn(C4CCN(Cc5ccccn5)CC4)c4ccccc34)C(=O)NC2=O)c2ccccc21 [Enzastaurin] + CC1(C)NC(=O)N(c2ccc([N+](=O)[O-])c(C(F)(F)F)c2)C1=O [nilutamide] (first compound 0.8 µM, partner dose 1 µM)	98.5
N.N.[Cl][Pt][Cl] [cisplatin] + COc1cc(Nc2ncc(F)c(Nc3ccc4c(n3)NC(=O)C(C)(C)O4)n2)cc(OC)c1OC [Tamatinib] (first compound 1.6 µM, partner dose 0.4 µM)	83.6
C[C@]12O[C@H](C[C@]1(O)CO)n1c3ccccc3c3c4c(c5c6ccccc6n2c5c31)CNC4=O [Lestaurtinib] + O=C(O)c1ccc(-c2c[nH]c3ncc(-c4ccccc4)cc23)cc1C1CCCC1 [GSK650394] (first compound 0.004 µM, partner dose 0.16 µM)	89.2
Cn1cc(C2=C(c3cn(C4CCN(Cc5ccccn5)CC4)c4ccccc34)C(=O)NC2=O)c2ccccc21 [Enzastaurin] + NC(=O)Nc1cc(-c2cccc(F)c2)sc1C(=O)N[C@H]1CCCNC1 [AZD7762] (first compound 0.8 µM, partner dose 0.02 µM)	97.8
Cn1cc(C2=C(c3cn(C4CCN(Cc5ccccn5)CC4)c4ccccc34)C(=O)NC2=O)c2ccccc21 [Enzastaurin] + COc1ccc2c(c1)CCC1C2CCC2(C)C(NCCCCCCN3C(=O)C=CC3=O)CCC12 [U73122] (first compound 0.8 µM, partner dose 0.4 µM)	95.5
C[As](C)SC[C@H](NC(=O)CC[C@H](N)C(=O)O)C(=O)NCC(=O)O [Darinaparsin] + c1cc(-c2cnn3cc(-c4ccc(OCCN5CCCCC5)cc4)cnc23)ccn1 [Dorsomorphin] (first compound 0.4 µM, partner dose 0.4 µM)	104
N.N.[Cl][Pt][Cl] [cisplatin] + COC(=O)c1sccc1S(=O)(=O)Nc1ccc(Nc2ccccc2)cc1OC [GSK0660] (first compound 1.6 µM, partner dose 1 µM)	109
C[As](C)SC[C@H](NC(=O)CC[C@H](N)C(=O)O)C(=O)NCC(=O)O [Darinaparsin] + Cc1nc(Nc2ncc(C(=O)Nc3c(C)cccc3Cl)s2)cc(N2CCN(CCO)CC2)n1 [dasatanib] (first compound 0.4 µM, partner dose 0.004 µM)	79.4
Cn1cc(C2=C(c3cn(C4CCN(Cc5ccccn5)CC4)c4ccccc34)C(=O)NC2=O)c2ccccc21 [Enzastaurin] + Cn1c(=O)n(-c2ccc(C(C)(C)C#N)cc2)c2c3cc(-c4cnc5ccccc5c4)ccc3ncc21 [NVP-BEZ235] (first compound 0.8 µM, partner dose 0.004 µM)	123
Cn1cc(C2=C(c3cn(C4CCN(Cc5ccccn5)CC4)c4ccccc34)C(=O)NC2=O)c2ccccc21 [Enzastaurin] + C=CCNC1=C2C[C@@H](C)C[C@H](OC)[C@H](O)[C@@H](C)/C=C(\C)[C@H](OC(N)=O)[C@@H](OC)/C=C\C=C(/C)C(=O)NC(=CC1=O)C2=O [Tanespimycin] (first compound 0.8 µM, partner dose 0.002 µM)	104
Cn1cc(C2=C(c3cn(C4CCN(Cc5ccccn5)CC4)c4ccccc34)C(=O)NC2=O)c2ccccc21 [Enzastaurin] + Cn1nnc2c(C(N)=O)ncn2c1=O [temozolomide] (first compound 0.8 µM, partner dose 2 µM)	108
C[C@]12O[C@H](C[C@]1(O)CO)n1c3ccccc3c3c4c(c5c6ccccc6n2c5c31)CNC4=O [Lestaurtinib] + CN(NC(=O)CC(=O)NN(C)C(=S)c1ccccc1)C(=S)c1ccccc1 [STA4783] (first compound 0.004 µM, partner dose 0.006 µM)	79.3
C[C@]12O[C@H](C[C@]1(O)CO)n1c3ccccc3c3c4c(c5c6ccccc6n2c5c31)CNC4=O [Lestaurtinib] + C[C@]1(O)C[C@@H](c2nc(-c3ccc4ccc(-c5ccccc5)nc4c3)c3c(N)nccn32)C1 [OSI906] (first compound 0.004 µM, partner dose 0.4 µM)	101
C[As](C)SC[C@H](NC(=O)CC[C@H](N)C(=O)O)C(=O)NCC(=O)O [Darinaparsin] + C/C(O)=C(\C#N)C(=O)Nc1cc(Br)ccc1Br [LFM-A13] (first compound 0.4 µM, partner dose 2 µM)	95.3
C[C@]12O[C@H](C[C@]1(O)CO)n1c3ccccc3c3c4c(c5c6ccccc6n2c5c31)CNC4=O [Lestaurtinib] + Nc1ccn([C@@H]2O[C@H](CO)[C@@H](O)C2(F)F)c(=O)n1 [gemcitabine] (first compound 0.004 µM, partner dose 0.0004 µM)	91.5
N.N.[Cl][Pt][Cl] [cisplatin] + C[As](C)SC[C@H](NC(=O)CC[C@H](N)C(=O)O)C(=O)NCC(=O)O [Darinaparsin] (first compound 1.6 µM, partner dose 0.4 µM)	107
Cn1cc(C2=C(c3cn(C4CCN(Cc5ccccn5)CC4)c4ccccc34)C(=O)NC2=O)c2ccccc21 [Enzastaurin] + O=C(Nc1cccc(Cl)c1)Nc1ncc(CCNc2ncnc3ccsc23)s1 [SNS314] (first compound 0.8 µM, partner dose 0.0008 µM)	94.1
N.N.[Cl][Pt][Cl] [cisplatin] + O=C(Nc1ccccc1)c1cc([N+](=O)[O-])ccc1Cl [GW9662] (first compound 1.6 µM, partner dose 2 µM)	102
Cn1cc(C2=C(c3cn(C4CCN(Cc5ccccn5)CC4)c4ccccc34)C(=O)NC2=O)c2ccccc21 [Enzastaurin] + Cn1cc(/C=C2\C(=O)Nc3cccnc32)c2ccccc21 [GW441756] (first compound 0.8 µM, partner dose 0.4 µM)	121
C[C@]12O[C@H](C[C@]1(O)CO)n1c3ccccc3c3c4c(c5c6ccccc6n2c5c31)CNC4=O [Lestaurtinib] + C=CCNC1=C2C[C@@H](C)C[C@H](OC)[C@H](O)[C@@H](C)/C=C(\C)[C@H](OC(N)=O)[C@@H](OC)/C=C\C=C(/C)C(=O)NC(=CC1=O)C2=O [Tanespimycin] (first compound 0.004 µM, partner dose 0.002 µM)	95
N.N.[Cl][Pt][Cl] [cisplatin] + C[C@@H]1CCN(C(=O)CC#N)C[C@@H]1N(C)c1ncnc2[nH]ccc12 [CP690550] (first compound 1.6 µM, partner dose 1 µM)	90.5
C[C@]12O[C@H](C[C@]1(O)CO)n1c3ccccc3c3c4c(c5c6ccccc6n2c5c31)CNC4=O [Lestaurtinib] + CCCS(=O)(=O)Nc1ccc(F)c(C(=O)c2c[nH]c3ncc(Cl)cc23)c1F [PLX4720] (first compound 0.004 µM, partner dose 0.08 µM)	108
C[C@]12O[C@H](C[C@]1(O)CO)n1c3ccccc3c3c4c(c5c6ccccc6n2c5c31)CNC4=O [Lestaurtinib] + O=C(Nc1cccc(Cl)c1)Nc1ncc(CCNc2ncnc3ccsc23)s1 [SNS314] (first compound 0.004 µM, partner dose 0.0008 µM)	87.5
